The chains are these.
B1: CPEB3 Ribozyme (parent)
chain: UAACAGGGGGCCACAGCAGAAGCGUUCACGUCGCAGCCCCUGUCAGAUUCUGGUGAAUCUGCGAAUUCUGCUGUAUAUCUC

Read counts are not given, so values of variants with three or more changes are uncertain.

In this series the parent is B1. The series is described as follows: self-cleavage, relative activity (ratio to wild type); higher = more cleavage; in vitro, sequencing. Summed up: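 For each CPEB3 ribozyme variant, relative activity is its cleaved/total read fraction divided by the unmutated ribozyme's. Barcoded error-prone PCR libraries were transcribed by T7 RNA polymerase (5 hours, 37°C) and held in DNase I for 15 min before an EDTA stop, with cleavage occurring throughout. Template-switching reverse transcription and Illumina sequencing were used to read the RNAs. A 5-read minimum applied, and results are the mean of three batches.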
For UAACAGGGGACCACAGCAGGAGCGUUCACGUCGCAGCCCCUGUCUGAUUCUGGUGAAUCAGCGAAUUCAGCUGUAUAUCUC, the self-cleavage was determined as 0.06.
For UAACAGGGGACCACAGCAGAAGCGUUCACGUCGCCGCCCCUGUCAGGUUCUGGUGAAUCAGCGAAUUCUGCUGUAUAUCUC the value was 0.07; for UAACAGGGGACCACAGCAGAUGCGUUCACGUCGCAGCCCCUGACAGAUUCUGGUGAAUCUGCGAAUUCAGCUGUAUAUCUC, 0.05; for UAACAGGGGACCACAGCAGAAGCGUUCACGUCGCGGCCCCUGUCAGAUUCUGGUGAAUCUGCGAGUUCUGCUGUAUAUCUC, 0.25.
For UAACAGGGGACCACAGCAGAAGCGUUCUCGUCGCAGCCCCUGUCAGAUUCUGGUGAAUCUGCGAGUUCUGCUGUAUAUCUC the value was 0.1; for UAACAGGGGACCACAGCAGGAGCGUUCACGGCGCAGCCCCUGUCGGAUUCUGGUGAAUCGGCGAAUUCUGCUGUAUAUCUC, 0.04.
Consider UAACAGGGGACCACAGCUGAAGCGUUCACGUCGCAGCCCCUGUCAGAUUCUCGUGAAUCUGCGAAUUCUGCUGUACAUCUC, for which the self-cleavage amounted to 0.05.
For the variant UAACAGGGGACCACAGCAGAAGCGUUCGCGUCGCAGCCCCUGUCAGAUUCUGGUGAAUCUGCGAAUCCUGCCGUACAUCUC, the self-cleavage amounted to 0.24.
With UAACAGGGGACCACAGCAGGAGCGUACACGUCGCAGCCCCUGUCAGACUCUGGUGAAUCUGCGGAUUCCGCUGUAUAUCUC, the self-cleavage turned out to be 0.07.
Turning to UAACAGGGGACCACAGCAGAAGCGUUCACGUCGCUGCCCCUGUCAGAUUCUAGUGAAUCUGCGAAUUCUGCUGUAUAUCUC, the self-cleavage was 0.1.
Next, UAACAGGGGACCACAGCAGAAGCGUUCACGUCGCUGCCCCUGUCAGACUCUGGUGAAUCUGCGAAUUCUGCUGUAUAUCCC: 0.19; UAACAGGGGACCACAGCAGGAGCGUUCACGUCGCAGCCCCUGUCAGAUUCUGGUGAAUCUGCGAAUCCUGCUGUAUAUCUC: 0.1.
Next, UAACAGGGGACCACAGCAGGAGCGUUCACGUCGCAGCCCCUGUCAGAUUCUGGAGAAUCUGCGAAUUCUGCUGUAUAUCUC: 0.09.
Next, UAACAGGGGACCACAGCAGAAGCGUUCGCGUCGCAGCCCCUGUCAGAUUCUGGUGAAUCUGCGUAUUCUGCUGUAUAUCUC: 0.12; UAACAGGGGACCACAGCAGUAGCGUUCUCGUCGCAGCCCCUGUCUGAUUCUGGUGAAUCUGCGAAUUCUGCUGUAUUUCUC: 0.03.
Consider UAACAGGGGACCACAGCAGGAGCAUUCACGUCGCAGCCCCUGUCAGAUUCUGGUGAAUCUGCGAAUUCUGCAGAAUGUCUC, for which the self-cleavage came out at 0.04.
For the variant UAACAGGGGACCACAGCUGAAGCGUUCACGUCGCAGCCCCAGUCAGAUUCUGGUGAAUCUGCGAACUCUGCUGUAUACCUC, the self-cleavage came out at 0.04.
Next, UAACAGGGGACCACAGCAGAAGCGUUCGCGACGCAGCCCCUGUCAGAUUCUGGUGAAUCUGCGGAUUCUGCUGUAUAUCUC: 0.05; UAACAGGGGACCACAGCAGGAGCGUUCACGUCGCAGCACCUGCCAGACUCUGGUGAAUCUGCGAAUUCUGCUGUAUAUCUC: 0.37; UAACAGGGGACCACAGCAGGAGCGUUCACGUCGCAGCCCCUGUCAGGUUCUGGUGAAUCUGCGAAUUCUGCUGUAUAUCUC: 0.13.
Next, UAACAGGGGACCACAGCAGGAGCGUUCACGUCGCAGCCCCUGUCAGCUUCUGGUGAAUCUGCGAAUUCUGCUGUAUAUCUC: 0.24; UAACAGGGGACCACAGCAGACGCGUUCACGUCGCAGCCCCUGUCAGAUUCUGGUGAAUCUGCGAAUUCCGCUGUAUAACUC: 0.05.
On to UAACAGGGGACCACAGCAGAAGCGUUCGCGUCGCGGCCCCUGCCAGAUUCUGGUGAAUCUGCGAAUUCUGCUGUACAUCUC, for which the self-cleavage stood at 0.09.
For UAACAGGGGACCACAGCAGAAGCGUUCGCGUCGCAGCCCCUGUCAGAUUCUGGCGAAUCCGCUAAUUCUGCUGUAUACCUC the value was 0.06; for UAACAGGGGACCACAGCAGAAGCGUUCUCGUCGCAGCGCCCGUCGGAUUCAGGUGAAUCUGCGAAUUCUGCUGUAUAUCUC, 0.05; for UAACAGGGGACCACAGCGGAAGCGUUCACGUCGCAGCCCCUGUCAGAAUCUGGUGAAUCUGCGGAUUCUGCUGUAUAUCUC, 0.18.
Next, UAACAGGGGACCACAGCAGAAGCGUUCACGUCGCGGCCCCUGUCAGAUUCUUGUGAAUCUGCGAAUUCUGCUGUAUAUCUC: 0.72.
On to UAACAGGGGACCACAGCAGAAGCGUUCACGUCGCUGCCCCUGACAGAUUCUGGUGAAUCUGCGAAUUCUGCUGUAUAUCUC, for which the self-cleavage was found to be 0.05.
Next, UAACAGGGGACCACAGCAGUAGCGUUCACGUCGCAGCCCGAGUCAGAUUCUGGUGAAUCUGCGAAAUCCGCUGUAUAUCUC: 0.07; UAACAGGGGACCACAGCAGAGGCGUCCACGUCGCGGCCCCUGUCAGAUUCUGGUGAAUCUGCGAAUACUGCUGUAUAUCUC: 0.24; UAACAGGGGACCACAGCAGUAGCGUUCACGUCGCAGCCCCUGUCAGAUUCUGGUGAAUCUGCGAAUCCUGCUGUAUAUCUC: 0.26.
For UAACAGGGGACCACAGCGGAAGCGUUCACGUCGCAGCCCCUGUCAGAUUCUGGUGAAUCUGCGAAUACUGCUGUAUAUCAC, the self-cleavage amounted to 0.05.
As to UAACAGGGGACCACAGCUGAAGCGUUCACGUCGCAGCCCCUGUCAGACUCUGGUGAAUCUGCGAAUUCUCCUGUAUAUCUC, the self-cleavage stood at 0.04.
Take UAACAGGGGACCACAGCUGGAGCGUUCACGUCGCAGCCCCUGACAGAUUCUGGUGAAUCUGCGAAUUCUGCUGUAUAUCUC: the self-cleavage turned out to be 0.05.

The values above are taken from the RNAGym collection of RNA variant scans (doi:10.1093/nar/gkz1192).
